# Test results from the supplement of paper PMC8728848.
# This is one part of the list.
# Columns and labels:
# Experiment in all cases: glycan array binding signal (z-score within array); higher = stronger binding
# Conditions in all cases: glycan notation: IUPAC condensed, linker removed
# [1] = target: Fuc(a1-2)[GalNAc(a1-3)]Gal(b1-3)GlcNAc(b1-3)GalNAc
# In short: (§1)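 The binding signal is a Z-score computed within each array. Data were drawn from 3228 arrays in the Consortium for Functional Glycomics database, restricted to those with a known protein sequence. Scores were averaged over arrays of the same protein sequence at different concentrations or buffers, and over linkers, and negative values can be taken as non-binding.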
# [2] = target: Fuc(a1-2)[GalNAc(a1-3)]Gal(b1-3)GlcNAc(b1-6)GalNAc
# In short: as §1
# [3] = target: Fuc(a1-2)[GalNAc(a1-3)]Gal(b1-4)Glc
# In short: as §1
# [4] = target: Fuc(a1-2)[GalNAc(a1-3)]Gal(b1-4)GlcNAc
# In short: as §1
# [5] = target: Fuc(a1-2)[GalNAc(a1-3)]Gal(b1-4)GlcNAc(b1-2)Man
# In short: as §1
# [6] = target: Fuc(a1-2)[GalNAc(a1-3)]Gal(b1-4)GlcNAc(b1-2)Man(a1-3)[Fuc(a1-2)[GalNAc(a1-3)]Gal(b1-4)GlcNAc(b1-2)Man(a1-6)]Man(b1-4)GlcNAc(b1-4)GlcNAc
# In short: as §1
# [7] = target: Fuc(a1-2)[GalNAc(a1-3)]Gal(b1-4)GlcNAc(b1-2)Man(a1-3)[Fuc(a1-2)[GalNAc(a1-3)]Gal(b1-4)GlcNAc(b1-2)Man(a1-6)]Man(b1-4)GlcNAc(b1-4)[Fuc(a1-6)]GlcNAc
# In short: as §1
# [8] = target: Fuc(a1-2)[GalNAc(a1-3)]Gal(b1-4)GlcNAc(b1-3)Gal(b1-4)GlcNAc
# In short: as §1
# [9] = target: Fuc(a1-2)[GalNAc(a1-3)]Gal(b1-4)GlcNAc(b1-3)Gal(b1-4)GlcNAc(b1-3)Gal(b1-4)GlcNAc
# In short: as §1
# [10] = target: Fuc(a1-2)[GalNAc(a1-3)]Gal(b1-4)GlcNAc(b1-3)GalNAc
# In short: as §1
# [11] = target: Fuc(a1-2)[GalNAc(a1-3)]Gal(b1-4)GlcNAc(b1-3)[Fuc(a1-2)[GalNAc(a1-3)]Gal(b1-4)GlcNAc(b1-6)]GalNAc
# In short: as §1
# [12] = target: Fuc(a1-2)[GalNAc(a1-3)]Gal(b1-4)GlcNAc(b1-6)GalNAc
# In short: as §1
# [13] = target: Fuc(a1-2)[GalNAc(a1-3)]Gal(b1-4)[Fuc(a1-3)]GlcNAc
# In short: as §1
# [14] = target: Fuc(a1-2)[GalNAc(a1-3)]Gal(b1-4)[Fuc(a1-3)]GlcNAc(b1-3)GalNAc
# In short: as §1
# [15] = target: Fuc(a1-2)[GalNAc(a1-4)]Gal(b1-4)GlcNAc
# In short: as §1
# [16] = target: Fuc(a1-2)[GalNAc(b1-3)]Gal
# In short: as §1
# [17] = target: Fuc(a1-3)GlcNAc
# In short: as §1
# [18] = target: Fuc(a1-3)[Gal(b1-4)]Glc6S
# In short: as §1
# [19] = target: Fuc(a1-3)[Gal(b1-4)]GlcNAc
# In short: as §1
# [20] = target: Fuc(a1-3)[Gal(b1-4)]GlcNAc(b1-2)Man
# In short: as §1
# [21] = target: Fuc(a1-3)[Gal(b1-4)]GlcNAc(b1-2)Man(a1-3)[Fuc(a1-3)[Gal(b1-4)]GlcNAc(b1-2)Man(a1-6)]Man(b1-4)GlcNAc(b1-4)GlcNAc
# In short: as §1
# [22] = target: Fuc(a1-3)[Gal(b1-4)]GlcNAc(b1-2)Man(a1-3)[Fuc(a1-3)[Gal(b1-4)]GlcNAc(b1-2)Man(a1-6)]Man(b1-4)GlcNAc(b1-4)[Fuc(a1-6)]GlcNAc
# In short: as §1
# [23] = target: Fuc(a1-3)[Gal(b1-4)]GlcNAc(b1-3)Gal(b1-3)[Fuc(a1-4)]GlcNAc
# In short: as §1
# [24] = target: Fuc(a1-3)[Gal(b1-4)]GlcNAc(b1-3)Gal(b1-4)[Fuc(a1-3)]GlcNAc
# In short: as §1
# [25] = target: Fuc(a1-3)[Gal(b1-4)]GlcNAc(b1-3)Gal(b1-4)[Fuc(a1-3)]GlcNAc(b1-3)Gal(b1-4)[Fuc(a1-3)]GlcNAc
# In short: as §1
# [26] = target: Fuc(a1-3)[Gal(b1-4)]GlcNAc(b1-3)GalNAc
# In short: as §1
# [27] = target: Fuc(a1-3)[Gal(b1-4)]GlcNAc(b1-6)GalNAc
# In short: as §1
# [28] = target: Fuc(a1-3)[Gal(b1-4)]GlcNAc(b1-6)[Gal(b1-3)GlcNAc(b1-3)]Gal(b1-4)Glc
# In short: as §1
# [29] = target: Fuc(a1-3)[Gal(b1-4)]GlcNAc6S
# In short: as §1
# [30] = target: Fuc(a1-3)[Gal3S(b1-4)]Glc
# In short: as §1
# [31] = target: Fuc(a1-3)[Gal3S(b1-4)]GlcNAc
# In short: as §1
# [32] = target: Fuc(a1-3)[Gal3S(b1-4)]GlcNAc6S
# In short: as §1
# [33] = target: Fuc(a1-3)[GalNAc(b1-4)]GlcNAc
# In short: as §1
# [34] = target: Fuc(a1-3)[GalNAc(b1-4)]GlcNAc6S
# In short: as §1
# [35] = target: Fuc(a1-4)GlcNAc
# In short: as §1
# [36] = target: Fuc(b1-3)GlcNAc
# In short: as §1
# [37] = target: Gal(a1-2)Gal
# In short: as §1
binder,measurement,setting,value
"Gal-9-hFc (Mus musculus), O08573-2 (protein) MALFSAQSPYINPIIPFTGPIQGGLQEGLQVTLQGTTKSFAQRFVVNFQNSFNGNDIAFHFNPRFEEGGYVVCNTKQNGQWGPEERKMQMPFQKGMPFELCFLVQRSEFKVMVNKKFFVQYQHRVPYHLVDTIAVSGCLKLSFITFQTQNFRPAHQAPMAQTTIHMVHSTPGQMFSTPGIPPVVYPTPAYTIPFYTPIPNGLYPSKSIMISGNVLPDATRFHINLRCGGDIAFHLNPRFNENAVVRNTQINNSWGQEERSLLGRMPFSRGQSFSVWIICEGHCFKVAVNGQHMCEYYHRLKNLQDINTLEVAGDIQLTHVQT",glycan array binding signal (z-score),[1],-0.072
same,glycan array binding signal (z-score),[2],-0.451
same,glycan array binding signal (z-score),[3],-0.255
same,glycan array binding signal (z-score),[4],-0.485
same,glycan array binding signal (z-score),[5],-0.361
same,glycan array binding signal (z-score),[6],-0.04
same,glycan array binding signal (z-score),[7],-0.135
same,glycan array binding signal (z-score),[8],0.055
same,glycan array binding signal (z-score),[9],0.143
same,glycan array binding signal (z-score),[10],-0.192
same,glycan array binding signal (z-score),[11],-0.223
same,glycan array binding signal (z-score),[12],-0.56
same,glycan array binding signal (z-score),[13],-0.286
same,glycan array binding signal (z-score),[14],0.106
same,glycan array binding signal (z-score),[15],-0.383
same,glycan array binding signal (z-score),[16],-0.459
same,glycan array binding signal (z-score),[17],-0.365
same,glycan array binding signal (z-score),[18],1.33
same,glycan array binding signal (z-score),[19],-0.277
same,glycan array binding signal (z-score),[20],-0.268
same,glycan array binding signal (z-score),[21],-0.103
same,glycan array binding signal (z-score),[22],0.147
same,glycan array binding signal (z-score),[23],-0.075
same,glycan array binding signal (z-score),[24],-0.201
same,glycan array binding signal (z-score),[25],-0.312
same,glycan array binding signal (z-score),[26],-0.479
same,glycan array binding signal (z-score),[27],0.042
same,glycan array binding signal (z-score),[28],-0.556
same,glycan array binding signal (z-score),[29],-0.756
same,glycan array binding signal (z-score),[30],-0.196
same,glycan array binding signal (z-score),[31],-0.315
same,glycan array binding signal (z-score),[32],-0.183
same,glycan array binding signal (z-score),[33],-0.241
same,glycan array binding signal (z-score),[34],-0.29
same,glycan array binding signal (z-score),[35],1.03
same,glycan array binding signal (z-score),[36],0.19
same,glycan array binding signal (z-score),[37],-0.049
